According to article PMC10946956:
No constants are given. Whether binding was seen depends on the method and setting. Binding seen in cells or lysates may run through a third protein. Some results given as binding are weak or reduced against the parent protein; the word gives no strength. For some of these results: Where a sequence is shown, tags or fusion partners need not be part of it.

By UniProt entry, the sequences of proteins in these tests, tags left out. Residues count along the entry.
UniProt O15455, residues 24-904: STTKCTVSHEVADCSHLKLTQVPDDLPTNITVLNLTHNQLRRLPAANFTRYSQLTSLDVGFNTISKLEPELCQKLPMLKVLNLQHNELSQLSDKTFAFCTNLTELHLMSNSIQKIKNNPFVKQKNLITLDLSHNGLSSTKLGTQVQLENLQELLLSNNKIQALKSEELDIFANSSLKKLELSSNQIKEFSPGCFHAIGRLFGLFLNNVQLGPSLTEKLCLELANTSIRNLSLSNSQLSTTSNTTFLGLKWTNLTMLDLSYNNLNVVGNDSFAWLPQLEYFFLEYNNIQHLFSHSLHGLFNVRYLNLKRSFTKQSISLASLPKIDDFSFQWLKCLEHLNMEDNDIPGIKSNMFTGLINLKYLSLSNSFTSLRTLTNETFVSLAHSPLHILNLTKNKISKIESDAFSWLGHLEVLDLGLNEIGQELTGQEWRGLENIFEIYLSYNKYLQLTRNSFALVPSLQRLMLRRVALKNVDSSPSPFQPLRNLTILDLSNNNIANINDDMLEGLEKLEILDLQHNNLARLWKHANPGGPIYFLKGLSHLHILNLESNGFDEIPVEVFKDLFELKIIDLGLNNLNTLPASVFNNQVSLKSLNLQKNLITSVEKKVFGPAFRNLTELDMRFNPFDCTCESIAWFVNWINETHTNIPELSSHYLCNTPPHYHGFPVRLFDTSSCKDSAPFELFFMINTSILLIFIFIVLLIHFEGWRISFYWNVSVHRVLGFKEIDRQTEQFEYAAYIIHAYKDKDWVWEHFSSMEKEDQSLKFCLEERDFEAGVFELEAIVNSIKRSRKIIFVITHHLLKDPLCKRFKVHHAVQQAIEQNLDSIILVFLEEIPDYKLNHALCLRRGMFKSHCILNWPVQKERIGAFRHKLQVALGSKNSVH
UniProt O00206, residues 24-839: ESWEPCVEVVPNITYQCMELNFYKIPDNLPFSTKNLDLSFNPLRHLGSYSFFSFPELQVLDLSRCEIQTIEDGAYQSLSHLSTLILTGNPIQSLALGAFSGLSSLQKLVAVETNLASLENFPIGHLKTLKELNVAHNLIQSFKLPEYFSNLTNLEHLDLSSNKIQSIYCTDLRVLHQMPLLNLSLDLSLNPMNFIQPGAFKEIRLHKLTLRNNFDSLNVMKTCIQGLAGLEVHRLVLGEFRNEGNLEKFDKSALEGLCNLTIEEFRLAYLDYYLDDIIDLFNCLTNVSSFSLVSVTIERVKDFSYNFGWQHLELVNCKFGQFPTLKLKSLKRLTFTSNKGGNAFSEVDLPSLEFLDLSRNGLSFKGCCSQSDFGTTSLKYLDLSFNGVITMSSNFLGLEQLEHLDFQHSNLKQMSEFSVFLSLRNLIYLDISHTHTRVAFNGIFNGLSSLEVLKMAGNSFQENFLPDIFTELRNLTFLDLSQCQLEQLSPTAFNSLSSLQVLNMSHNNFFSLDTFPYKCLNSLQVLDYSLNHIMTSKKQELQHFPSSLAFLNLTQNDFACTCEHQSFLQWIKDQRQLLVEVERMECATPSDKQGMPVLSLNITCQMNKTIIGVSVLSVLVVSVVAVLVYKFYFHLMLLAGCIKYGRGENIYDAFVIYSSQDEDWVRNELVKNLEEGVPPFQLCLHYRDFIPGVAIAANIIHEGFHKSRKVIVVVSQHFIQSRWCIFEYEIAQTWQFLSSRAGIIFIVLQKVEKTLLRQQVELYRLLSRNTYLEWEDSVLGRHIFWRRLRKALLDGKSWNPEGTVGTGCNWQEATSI
UniProt O60603: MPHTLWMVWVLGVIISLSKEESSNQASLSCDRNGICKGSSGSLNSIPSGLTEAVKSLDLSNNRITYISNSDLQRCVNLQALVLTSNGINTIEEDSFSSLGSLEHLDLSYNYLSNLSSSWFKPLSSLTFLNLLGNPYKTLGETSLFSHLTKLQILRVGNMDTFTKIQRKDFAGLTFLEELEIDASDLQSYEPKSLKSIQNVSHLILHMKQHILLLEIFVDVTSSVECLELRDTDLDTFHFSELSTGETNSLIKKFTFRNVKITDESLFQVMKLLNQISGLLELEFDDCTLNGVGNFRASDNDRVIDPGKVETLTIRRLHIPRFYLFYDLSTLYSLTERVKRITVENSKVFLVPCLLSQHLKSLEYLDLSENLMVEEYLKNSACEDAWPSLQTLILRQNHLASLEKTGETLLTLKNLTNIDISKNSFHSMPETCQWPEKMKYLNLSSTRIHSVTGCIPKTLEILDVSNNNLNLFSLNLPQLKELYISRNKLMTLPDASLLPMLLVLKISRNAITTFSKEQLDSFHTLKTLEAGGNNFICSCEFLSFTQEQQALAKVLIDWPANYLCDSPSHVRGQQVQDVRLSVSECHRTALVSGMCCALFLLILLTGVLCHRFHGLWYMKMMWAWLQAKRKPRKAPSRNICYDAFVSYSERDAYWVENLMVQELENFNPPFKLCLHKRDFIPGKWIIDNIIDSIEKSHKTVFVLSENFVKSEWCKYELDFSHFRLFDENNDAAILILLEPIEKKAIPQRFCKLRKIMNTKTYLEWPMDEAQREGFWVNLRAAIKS
UniProt O60602, residues 21-858: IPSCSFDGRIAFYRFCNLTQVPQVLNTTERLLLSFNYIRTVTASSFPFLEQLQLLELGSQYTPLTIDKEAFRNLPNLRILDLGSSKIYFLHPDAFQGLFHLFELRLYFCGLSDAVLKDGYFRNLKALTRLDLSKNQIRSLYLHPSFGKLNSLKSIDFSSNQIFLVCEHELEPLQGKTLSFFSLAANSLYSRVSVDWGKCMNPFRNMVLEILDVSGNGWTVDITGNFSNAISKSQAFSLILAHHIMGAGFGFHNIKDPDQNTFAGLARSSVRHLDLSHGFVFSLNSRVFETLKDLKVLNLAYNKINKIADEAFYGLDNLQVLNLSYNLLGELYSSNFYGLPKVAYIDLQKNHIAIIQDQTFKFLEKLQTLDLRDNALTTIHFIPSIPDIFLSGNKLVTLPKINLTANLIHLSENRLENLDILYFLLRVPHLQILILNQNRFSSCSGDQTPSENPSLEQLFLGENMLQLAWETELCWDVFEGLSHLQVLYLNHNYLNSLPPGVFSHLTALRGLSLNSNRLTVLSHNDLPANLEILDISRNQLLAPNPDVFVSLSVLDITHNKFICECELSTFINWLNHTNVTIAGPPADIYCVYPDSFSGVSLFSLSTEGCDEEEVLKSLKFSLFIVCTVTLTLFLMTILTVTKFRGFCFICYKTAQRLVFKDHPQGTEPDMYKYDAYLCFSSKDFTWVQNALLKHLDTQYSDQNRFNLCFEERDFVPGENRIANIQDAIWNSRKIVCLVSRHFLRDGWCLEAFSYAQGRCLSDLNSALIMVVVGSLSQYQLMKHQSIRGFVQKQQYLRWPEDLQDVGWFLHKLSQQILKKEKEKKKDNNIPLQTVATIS
UniProt Q15363, residues 21-201: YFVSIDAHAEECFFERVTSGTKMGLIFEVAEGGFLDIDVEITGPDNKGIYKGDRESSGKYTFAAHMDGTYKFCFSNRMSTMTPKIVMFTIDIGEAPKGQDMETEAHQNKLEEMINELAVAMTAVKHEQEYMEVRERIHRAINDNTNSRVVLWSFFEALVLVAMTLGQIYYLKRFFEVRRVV

Experiments:
Flag-TLR3 [1] = target: Flag-TLR3 (UniProt O15455); assay: co-IP; HEK293T cells transiently co-transfected, lysed 48 h later; supernatant incubated with M2 anti-FLAG beads overnight at 4°C, washed three times with TBS; western blot
Flag-TLR4 [2] = target: Flag-TLR4 (UniProt O00206); assay: as above
Flag-TLR2 [3] = target: Flag-TLR2 (UniProt O60603); assay: as above
Flag-TLR3 [4] = target: Flag-TLR3 (UniProt O15455); assay: proximity ligation; HEK293T cells transiently co-transfected, fixed 48 h later (4% paraformaldehyde, acetone), Duolink In Situ Red Mouse/Rabbit kit with mouse anti-HA and rabbit anti-FLAG, confocal microscopy
Flag-TLR4 [5] = target: Flag-TLR4 (UniProt O00206); assay: as above
Flag-TLR2 [6] = target: Flag-TLR2 (UniProt O60603); assay: as above
Flag-TLR3 [7] = target: Flag-TLR3 (UniProt O15455); assay: as above; remark: listed apart in the source
Flag-TLR4 [8] = target: Flag-TLR4 (UniProt O00206); assay: as above; remark: listed apart in the source
Flag-TLR2 [9] = target: Flag-TLR2 (UniProt O60603); assay: as above; remark: listed apart in the source
Flag-TLR5 = Flag-TLR5 (UniProt O60602); assay: as above

| binding (Flag-TLR3 [1]) | binding (Flag-TLR4 [2]) | binding (Flag-TLR2 [3]) | binding (Flag-TLR3 [4]) | binding (Flag-TLR4 [5]) | binding (Flag-TLR2 [6]) | binding (Flag-TLR3 [7]) | binding (Flag-TLR4 [8]) | binding (Flag-TLR2 [9]) | binding (Flag-TLR5) | Molecule |
| --- | --- | --- | --- | --- | --- | --- | --- | --- | --- | --- |
| binds | binds | binds | binds | binds | binds | – | – | – | – | TMED2-HA (from UniProt Q15363 21-201) |
| no binding | binds | binds | – | – | – | no binding | binds | binds | binds | TMED7-HA (protein, UniProt Q9Y3B3 35-224) SEITFELPDNAKQCFYEDIAQGTKCTLEFQVITGGHYDVDCRLEDPDGKVLYKEMKKQYDSFTFTASKNGTYKFCFSNEFSTFTHKTVYFDFQVGEDPPLFPSENRVSALTQMESACVSIHEALKSVIDYQTHFRLREAQGRSRAEDLNTRVAYWSVGEALILLVVSIGQVFLLKSFFSDKRTTTTRVGS |
